Measurements reported in the supplement of paper PMC11876631.
± gives the standard deviation of the averaged measurements. Laboratory Escherichia coli strains with one amino-acid change in an essential protein, pooled on minimal glucose agar with carbenicillin or gentamicin at twice the control MIC (plus kanamycin and chloramphenicol for the plasmids), 48 h. Fold change of barcode share against drug-free plates; higher = less susceptible. Active = above 20 in both replicates (the paper's putatively resistant). '<' = one read or none on drug, '>' = one read or none on a drug-free plate. Shares are relative, so most strains fall below 1 when a few take over. Listed are strains with at least 15 reads on both drug-free plates, and hits; most hits rest on fewer reference reads. Replicate rank correlation about 0.5. Edits are read from barcodes.

B1: kdsB V82D (protein)
chain: MSFVVIIPARYASTRLPGKPLVDINGKPMIVHVLERARESGAERIIVATDHEDVARAVEAAGGEVCMTRADHQSGTERLAEDVEKCAFSDDTVIVNVQGDEPMIPATIIRQVADNLAQRQVGMATLAVPIHNAEEAFNPNAVKVVLDAEGYALYFSRATIPWDRDRFAEGLETVGDNFLRHLGIYGYRAGFIRRYVNWQPSPLEHIEMLEQLRVLWYGEKIHVAVAQEVPGTGVDTPEDLERVRAEMR
B2: kdsB I46W (protein)
chain: MSFVVIIPARYASTRLPGKPLVDINGKPMIVHVLERARESGAERIWVATDHEDVARAVEAAGGEVCMTRADHQSGTERLAEVVEKCAFSDDTVIVNVQGDEPMIPATIIRQVADNLAQRQVGMATLAVPIHNAEEAFNPNAVKVVLDAEGYALYFSRATIPWDRDRFAEGLETVGDNFLRHLGIYGYRAGFIRRYVNWQPSPLEHIEMLEQLRVLWYGEKIHVAVAQEVPGTGVDTPEDLERVRAEMR
B3: kdsB V95D (protein)
chain: MSFVVIIPARYASTRLPGKPLVDINGKPMIVHVLERARESGAERIIVATDHEDVARAVEAAGGEVCMTRADHQSGTERLAEVVEKCAFSDDTVIDNVQGDEPMIPATIIRQVADNLAQRQVGMATLAVPIHNAEEAFNPNAVKVVLDAEGYALYFSRATIPWDRDRFAEGLETVGDNFLRHLGIYGYRAGFIRRYVNWQPSPLEHIEMLEQLRVLWYGEKIHVAVAQEVPGTGVDTPEDLERVRAEMR
B4: aroA L250Q (protein)
chain: MESLTLQPIARVDGTINLPGSKSVSNRALLLAALAHGKTVLTNLLDSDDVRHMLNALTALGVSYTLSADRTRCEIIGNGGPLHAEGALELFLGNAGTAMRPLAAALCLGSNDIVLTGEPRMKERPIGHLVDALRLGGAKITYLEQENYPPLRLQGGFTGGNVDVDGSVSSQFLTALLMTAPLAPEDTVIRIKGDLVSKPYIDITLNLMKTFGVEIENQHYQQFVVKGGQSYQSPGTYLVEGDASSASYFQAAAAIKGGTVKVTGIGRNSMQGDIRFADVLEKMGATICWGDDYISCTRGELNAIDMDMNHIPDAAMTIATAALFAKGTTTLRNIYNWRVKETDRLFAMATELRKVGAEVEEGHDYIRITPPEKLNFAEIATYNDHRMAMCFSLVALSDTPVTILDPKCTAKTFPDYFEQLARISQAA
B5: aroA L31A (protein)
chain: MESLTLQPIARVDGTINLPGSKSVSNRALLAAALAHGKTVLTNLLDSDDVRHMLNALTALGVSYTLSADRTRCEIIGNGGPLHAEGALELFLGNAGTAMRPLAAALCLGSNDIVLTGEPRMKERPIGHLVDALRLGGAKITYLEQENYPPLRLQGGFTGGNVDVDGSVSSQFLTALLMTAPLAPEDTVIRIKGDLVSKPYIDITLNLMKTFGVEIENQHYQQFVVKGGQSYQSPGTYLVEGDASSASYFLAAAAIKGGTVKVTGIGRNSMQGDIRFADVLEKMGATICWGDDYISCTRGELNAIDMDMNHIPDAAMTIATAALFAKGTTTLRNIYNWRVKETDRLFAMATELRKVGAEVEEGHDYIRITPPEKLNFAEIATYNDHRMAMCFSLVALSDTPVTILDPKCTAKTFPDYFEQLARISQAA
B6: kdsA I93A (protein)
chain: MKQKVVSIGDINVANDLPFVLFGGMNVLESRDLAMRICEHYVTVTQKLGIPYVFKASFDKANRSSIHSYRGPGLEEGMKIFQELKQTFGVKIATDVHEPSQAQPVADVVDVIQLPAFLARQTDLVEAMAKTGAVINVKKPQFVSPGQMGNIVDKFKEGGNEKVILCDRGANFGYDNLVVDMLGFSIMKKVSGNSPVIFDVTHALQCRDPFGAASGGRRAQVAELARAGMAVGLAGLFIEAHPDPEHAKCDGPSALPLAKLEPFLKQMKAIDDLVKGFEELDTSK
B7: kdsA I92A (protein)
chain: MKQKVVSIGDINVANDLPFVLFGGMNVLESRDLAMRICEHYVTVTQKLGIPYVFKASFDKANRSSIHSYRGPGLEEGMKIFQELKQTFGVKAITDVHEPSQAQPVADVVDVIQLPAFLARQTDLVEAMAKTGAVINVKKPQFVSPGQMGNIVDKFKEGGNEKVILCDRGANFGYDNLVVDMLGFSIMKKVSGNSPVIFDVTHALQCRDPFGAASGGRRAQVAELARAGMAVGLAGLFIEAHPDPEHAKCDGPSALPLAKLEPFLKQMKAIDDLVKGFEELDTSK
B8: leuA I6W (protein)
chain: MSQQVWIFDTTLRDGEQALQASLSVKEKLQIALALERMGVDVMEVGFPVSSPGDFESVQTIARQVKNSRVCALARCVEKDIDVAAESLKVAEAFRIHTFIATSPMHIATKLRSTLDEVIERAIYMVKRARNYTDDVEFSCEDAGRTPIADLARVVEAAINAGATTINIPDTVGYTMPFEFAGIISGLYERVPNIDKAIISVHTHDDLGLAVGNSLAAVHAGARQVEGAMNGIGERAGNCSLEEVIMAIKVRKDILNVHTAINHQEIWRTSQLVSQICNMPIPANKAIVGSGAFAHSSGIHQDGVLKNRENYEIMTPESIGLNQIQLNLTSRSGRAAVKHRMDEMGYKESEYNLDNLYDAFLKLADKKGQVFDYDLEALAFIGKQQEEPEHFRLDYFSVQSGSNDIATAAVKLACGEEVKAEAANGNGPVDAVYQAINRITEYNVELVKYSLTAKGHGKDALGQVDIVANYNGRRFHGVGLATDIVESSAKAMVHVLNNIWRAAEVEKELQRKAQHNENNKETV
B9: leuA I7A (protein)
chain: MSQQVIAFDTTLRDGEQALQASLSVKEKLQIALALERMGVDVMEVGFPVSSPGDFESVQTIARQVKNSRVCALARCVEKDIDVAAESLKVAEAFRIHTFIATSPMHIATKLRSTLDEVIERAIYMVKRARNYTDDVEFSCEDAGRTPIADLARVVEAAINAGATTINIPDTVGYTMPFEFAGIISGLYERVPNIDKAIISVHTHDDLGLAVGNSLAAVHAGARQVEGAMNGIGERAGNCSLEEVIMAIKVRKDILNVHTAINHQEIWRTSQLVSQICNMPIPANKAIVGSGAFAHSSGIHQDGVLKNRENYEIMTPESIGLNQIQLNLTSRSGRAAVKHRMDEMGYKESEYNLDNLYDAFLKLADKKGQVFDYDLEALAFIGKQQEEPEHFRLDYFSVQSGSNDIATAAVKLACGEEVKAEAANGNGPVDAVYQAINRITEYNVELVKYSLTAKGHGKDALGQVDIVANYNGRRFHGVGLATDIVESSAKAMVHVLNNIWRAAEVEKELQRKAQHNENNKETV
B10: ispG V84Q (protein)
chain: MHNQAPIQRRKSTRIYVGNVPIGDGAPIAVQSMTNTRTTDVEATVNQIKALERVGADIVRVSVPTMDAAEAFKLIKQQVNVPLQADIHFDYRIALKVAEYGVDCLRINPGNIGNEERIRMVVDCARDKNIPIRIGVNAGSLEKDLQEKYGEPTPQALLESAMRHVDHLDRLNFDQFKVSVKASDVFLAVESYRLLAKQIDQPLHLGITEAGGARSGAVKSAIGLGLLLSEGIGDTLRVSLAADPVEEIKVGFDILKSLRIRSRGINFIACPTCSRQEFDVIGTVNALEQRLEDIITPMDVSIIGCVVNGPGEALVSTLGVTGGNKKSGLYEDGVRKDRLDNNDMIDQLEARIRAKASQLDEARRIDVQQVEK
B11: ispG V84D (protein)
chain: MHNQAPIQRRKSTRIYVGNVPIGDGAPIAVQSMTNTRTTDVEATVNQIKALERVGADIVRVSVPTMDAAEAFKLIKQQVNVPLDADIHFDYRIALKVAEYGVDCLRINPGNIGNEERIRMVVDCARDKNIPIRIGVNAGSLEKDLQEKYGEPTPQALLESAMRHVDHLDRLNFDQFKVSVKASDVFLAVESYRLLAKQIDQPLHLGITEAGGARSGAVKSAIGLGLLLSEGIGDTLRVSLAADPVEEIKVGFDILKSLRIRSRGINFIACPTCSRQEFDVIGTVNALEQRLEDIITPMDVSIIGCVVNGPGEALVSTLGVTGGNKKSGLYEDGVRKDRLDNNDMIDQLEARIRAKASQLDEARRIDVQQVEK
B12: ispG V59Q (protein)
chain: MHNQAPIQRRKSTRIYVGNVPIGDGAPIAVQSMTNTRTTDVEATVNQIKALERVGADIQRVSVPTMDAAEAFKLIKQQVNVPLVADIHFDYRIALKVAEYGVDCLRINPGNIGNEERIRMVVDCARDKNIPIRIGVNAGSLEKDLQEKYGEPTPQALLESAMRHVDHLDRLNFDQFKVSVKASDVFLAVESYRLLAKQIDQPLHLGITEAGGARSGAVKSAIGLGLLLSEGIGDTLRVSLAADPVEEIKVGFDILKSLRIRSRGINFIACPTCSRQEFDVIGTVNALEQRLEDIITPMDVSIIGCVVNGPGEALVSTLGVTGGNKKSGLYEDGVRKDRLDNNDMIDQLEARIRAKASQLDEARRIDVQQVEK
B13: ispG V122A (protein)
chain: MHNQAPIQRRKSTRIYVGNVPIGDGAPIAVQSMTNTRTTDVEATVNQIKALERVGADIVRVSVPTMDAAEAFKLIKQQVNVPLVADIHFDYRIALKVAEYGVDCLRINPGNIGNEERIRMVADCARDKNIPIRIGVNAGSLEKDLQEKYGEPTPQALLESAMRHVDHLDRLNFDQFKVSVKASDVFLAVESYRLLAKQIDQPLHLGITEAGGARSGAVKSAIGLGLLLSEGIGDTLRVSLAADPVEEIKVGFDILKSLRIRSRGINFIACPTCSRQEFDVIGTVNALEQRLEDIITPMDVSIIGCVVNGPGEALVSTLGVTGGNKKSGLYEDGVRKDRLDNNDMIDQLEARIRAKASQLDEARRIDVQQVEK
B14: ispG L105Q (protein)
chain: MHNQAPIQRRKSTRIYVGNVPIGDGAPIAVQSMTNTRTTDVEATVNQIKALERVGADIVRVSVPTMDAAEAFKLIKQQVNVPLVADIHFDYRIALKVAEYGVDCQRINPGNIGNEERIRMVVDCARDKNIPIRIGVNAGSLEKDLQEKYGEPTPQALLESAMRHVDHLDRLNFDQFKVSVKASDVFLAVESYRLLAKQIDQPLHLGITEAGGARSGAVKSAIGLGLLLSEGIGDTLRVSLAADPVEEIKVGFDILKSLRIRSRGINFIACPTCSRQEFDVIGTVNALEQRLEDIITPMDVSIIGCVVNGPGEALVSTLGVTGGNKKSGLYEDGVRKDRLDNNDMIDQLEARIRAKASQLDEARRIDVQQVEK

Molecular target: Escherichia coli (laboratory strain)
Test: barcode share on antibiotic plates over drug-free plates; higher = less susceptible
Conditions: antibiotic: gentamicin; 2× MIC (MIC 0.45 µg/mL)
Method: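 A pool of E. coli strains, each edited to carry one amino-acid change in an essential protein, was grown for 48 h on minimal glucose agar with or without antibiotic; strain barcodes were sequenced; mean of two replicates.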

Protein | fold change of barcode share
B1 | < 0.0195
B2 | < 0.0153
B3 | < 0.0165
B4 | < 0.0131
B5 | < 0.0147
B6 | < 0.0181
B7 | < 0.0195
B8 | < 0.018
B9 | < 0.018
B10 | 183 [active]
B11 | 1.75 ± 1.1
B12 | > 191 [active]
B13 | 0.00518 ± 0.0038
B14 | 0.541 ± 0.73
